Of roughly 21,000 targets only a part is listed; those with the largest changes were picked by preference.

Compound in this test: CC1Cc2ccccc2N1C(=O)C1CCCN(C1)C(=O)CCl (mixture of isomers) [TRIM25 ligand 11 (diastereomer mixture)]
Kind of test: probe-labelled cysteine peptide fold change vs DMSO (competition) (log2 fold change); higher = less target engagement (more negative = stronger competition). The note with it: THP-1, incubation time: 4 h.
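Note: competitive chemoproteomic profiling in live THP-1 cells with an iodoacetamide desthiobiotin (IA-DTB) probe, comparing probe-labelled peptide intensities in compound-treated cells against DMSO-treated controls.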

Sequence of UniProt P51991 (P51991 whole entry, looked up): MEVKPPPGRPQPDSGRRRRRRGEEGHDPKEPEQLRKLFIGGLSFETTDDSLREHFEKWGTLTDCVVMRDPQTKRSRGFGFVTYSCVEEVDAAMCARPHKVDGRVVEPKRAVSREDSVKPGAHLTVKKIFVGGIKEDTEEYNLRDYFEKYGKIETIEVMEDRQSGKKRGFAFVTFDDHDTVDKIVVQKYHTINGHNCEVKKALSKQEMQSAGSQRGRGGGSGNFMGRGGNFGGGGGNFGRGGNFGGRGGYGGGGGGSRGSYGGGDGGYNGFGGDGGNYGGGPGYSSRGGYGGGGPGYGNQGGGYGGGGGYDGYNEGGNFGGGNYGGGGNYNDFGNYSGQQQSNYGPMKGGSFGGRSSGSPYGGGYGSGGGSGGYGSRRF

Consider “HNRNPA3_P51991_85+94_GFGFVTYSCVEEVDAAMCAR (UniProt P51991)”, for which the “probe-labelled cysteine peptide fold change” value was 0.0715 (10 µM) and -0.152 (50 µM).

(Values after the supplement of paper PMC12067093, “Discovery and optimisation of a covalent ligand for TRIM25 and its application to targeted protein ubiquitination” (Chemical Science, 2025).)
